In all, about 1,800 sequences were measured (“median log2 fold change of GCK-ALFA target abundance (FLAG IP / Myc IP barcode read proportion)”: median about 0.14, lowest 2% from about -0.84 on). Some of the results follow.
T1: TRAF2, Q12933
T1 chain: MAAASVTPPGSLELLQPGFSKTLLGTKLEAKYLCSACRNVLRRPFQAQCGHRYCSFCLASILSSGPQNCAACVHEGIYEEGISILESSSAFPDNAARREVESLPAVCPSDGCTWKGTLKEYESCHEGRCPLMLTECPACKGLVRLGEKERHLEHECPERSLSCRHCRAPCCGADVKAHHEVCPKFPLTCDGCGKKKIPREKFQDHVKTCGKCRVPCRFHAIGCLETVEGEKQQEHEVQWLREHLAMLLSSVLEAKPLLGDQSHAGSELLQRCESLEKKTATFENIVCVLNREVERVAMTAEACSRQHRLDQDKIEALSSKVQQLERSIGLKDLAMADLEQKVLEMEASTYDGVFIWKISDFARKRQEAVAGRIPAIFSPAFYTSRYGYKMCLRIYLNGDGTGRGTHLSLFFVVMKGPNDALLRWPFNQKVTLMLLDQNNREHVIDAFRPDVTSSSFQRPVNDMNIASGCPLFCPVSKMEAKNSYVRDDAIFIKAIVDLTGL

B1: traf2_out_20_38_2000 (protein)
chain: SMEEEEERLLEEEIEAANEAEDEAAAWVAELQAAGKSVEEIAAEAKARVDELLTAAGLEEERDDLVADIDLALSSPDAVRLITRILARAITLVRQKELRK
B2: traf2_out_13_95_1116 (protein)
chain: SKELAEKIMEIADKALEEANKLLDELLEKIKASGKLDPEVEKALEEAKKSTIRTAIHTLKELSKKYPEFKELFDETIKKLEEIRRKAGKEVAKLIKEEEE
B3: traf2_out_11_155_764 (protein)
chain: KEKQEIYQEYNDKVSEIADELDAKLEEIVAELAERDPETAARVRAVLEAHRDASARSRALLAARILEEAGHEELAKRVLEAVEEAQKKMNEIAIETEKKL
B4: traf2_out_13_95_1163 (protein)
chain: EEEKTKKIREVASEAADKMEEVARDFRDRVEALTGDPEARALTDRVVRVTNEYTLEHVADELIAKYPEHAAEIRALRDEALAKLREIRKETTKKLNEIEE
B5: traf2_out_20_38_2034 (protein)
chain: SMEEEEEEKLEEIIEVANEALDKYEAEIAKWKAEGKTVEEIAEEAKKKVKELLSKVGLEEEAKILIEEIDLALSSPDAERLIARTLARAEALVKQKELNE
B6: traf2_out_6_3_2521 (protein)
chain: SEESLRRDARRVLEGMDIKTAEQLKTLVKAEVNAVKKLVSRPDTDEATLAGAESVLELSRAIVEVAAEELPDLTEEDVKELKELIEEARKLIEKKRKELE
B7: traf2_out_6_156_2385 (protein)
chain: MAEEILKETLEKIEKYIKALSEAPEEKKIAYINKIAGTVYRGLQRLRAAGASLEELREFVERVKEEVEKWLKENGLDESTKNLILASINAVGEVALREAA
B8: traf2_out_9_17_2625 (protein)
chain: AEAEERRREHLLEAAEEILEELVKRGLITEEEAEEILERVREAIERGMSPEEVIALFLGDIASVLLFDKNLSLKEVQRIVGEVYRRLRELLRRREEEERA
B9: traf2_out_3_89_2286 (protein)
chain: SSEREEKLEELRKIIDRYLRGFRKSATRVAKEMLEEGYSLETLRGVLEASRTALIEEIREIAKERGLSEEDIKELVEEATKRLDEIVAEILAEAEKARAA
B10: traf2_out_14_166_1288 (protein)
chain: MSPEEIERIREIVDKLEPLTKEAVAEAEALLAENAGRLTPEQLARANELLAIARRNIGSSAINALREMAKLAKEAGLEETAKKFKALAEKLEKKLKELNK
B11: traf2_out_18_3_1918 (protein)
chain: SEEKLKEVSEKIDKIVDEARKKAEEALERGAKEHPEFKERFEELREDLEAGAGPFGILEALAELFKEAGDEESAKEIEEFLREKKKELQKLVDEYEELLK
B12: traf2_out_11_155_726 (protein)
chain: SKFKEAQNKIVDFNLEVGDELLKKVEEIIKEIEKEDPEVAKKLREVVEKYKKFSNRSAARAAIDLLREEGYEEYAERLEKALEEAQRKMSKKTQEIEKEL
B13: traf2_out_1_27_993 (protein)
chain: SDKEIAERIRKASKEMANSSLEEKLKIAKELIREMAEIGKGDARTAAVILVSTMKTDEEFEALLKAIEETFKELGWSEEEIEEVRRQMETMWKLLKKAYA
B14: traf2_out_18_167_1849 (protein)
chain: EKEIEEKRRELSDRLVQLSEVKRLARRALQALETDPSTVPATLAALEAAAASIPELQPLVAAARAALAAGDREGLRATLEALIEKAQKLMNEVLKEYEAL
B15: traf2_out_15_180_1321 (protein)
chain: MTEEELQRRIDLANEVADRVQDRLRELLAANPELSPEERAALRELARSLTTLLLNGEWAEAEAALARAEARLSPRAAAVARELYAFAREVVAAAKAELAA
B16: traf2_out_11_155_731 (protein)
chain: EKKEKARREIVDFAIEQGDELEAFVEALIKEVEKEDPELAKELRAVFEEHRKYSARSAALAAIDVLRKHGYEERAEELEKKIEEANKKASEFIKKIEEEL
B17: traf2_out_20_3_2051 (protein)
chain: EELEKELEKELEKLEKLLKEIEKLVDPETAAKLKELLEKVKKAKKEGYEEFLIALSELRRALLEFAEEARAAGKEEVAALLEEAAEEVQEALNIIYKIIE
B18: traf2_out_9_17_2621 (protein)
chain: AAAAEAERAAILEVTDEILEELIKEGLITEEEAEKIREKVEEAIAAGKTPEEVKALFLGSIASILLQPDGLSVQEAQKVVGEVYRRWNELLAARRAAAAA
B19: traf2_out_1_156_902 (protein)
chain: SNADKQYEALKAYLHQPKRSAILRAVAGHLADAEDILEEARREGLPEEVLERLEELRDRIKALLGRMVSDTSLTDEELEALLAEAKALAEEARKILEEAR

Target: T1, TRAF2, Q12933
Test: median log2 fold change of GCK-ALFA target abundance (FLAG IP / Myc IP barcode read proportion) (log2 ratio); each designed protein is fused to an ALFA-tag nanobody in HEK293 cells to bring the named protein to FLAG-tagged glucokinase (GCK); Myc marks an untargeted standard; higher = target protein stabilised (more abundant)
Conditions: target protein: 3xFLAG-MCP-GCK-ALFA reporter; HEK293 landing pad (RPLP)
How it was run: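 An ALFA-nanobody-fused binder library was recombined into HEK293 landing-pad cells and induced with 2 μg mL^−1 doxycycline. Cells were transfected with a plasmid expressing a FLAG-tagged target and a Myc-tagged standard. After 48 h, lysates underwent anti-FLAG and anti-Myc immunoprecipitation, and circular RNA barcodes were reverse transcribed, amplified and sequenced. Target abundance is the per-binder median log2 ratio of FLAG to Myc barcode read proportions. Barcodes needed ≥10^−7 proportion in both replicates, binders ≥3 barcodes per replicate, and a 10^−6 pseudocount was added; the two replicates were pooled.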

Compared with B1, B2 is lower in “median log2 fold change” value: 0.404 for the first, 0.062 for the second.

B3 and B4 are within 0.2 log units of each other in “median log2 fold change” value: 0.259 for the first, 0.254 for the second.

B5 and B6 are within 0.2 log units of each other in “median log2 fold change” value: -0.126 for the first, -0.093 for the second.

Compared with B7, B8 is higher in “median log2 fold change” value: -0.0467 for the first, 0.259 for the second.

Compared with B9, B10 is higher in “median log2 fold change” value: -0.289 for the first, 0.219 for the second.

Going from B11 to B12, the “median log2 fold change” value rises from 0.156 to 0.469.

Compared with B13, B14 is higher in “median log2 fold change” value: -0.447 for the first, 0.139 for the second.

B15 and B16 are within 0.2 log units of each other in “median log2 fold change” value: 0.221 for the first, 0.0471 for the second.

First: B17
Second: B18
The “median log2 fold change” value of the first is higher: 0.215 for the first, -0.109 for the second.

For B19, the “median log2 fold change” value was 0.0835.

From the supplement of paper PMC12632987
